This is an account of results in ChEMBL document CHEMBL4888484, “Replenishing the malaria drug discovery pipeline: Screening and hit evaluation of the MMV Hit Generation Library 1 (HGL1) against asexual blood stage Plasmodium falciparum ,using a nano luciferase reporter read-out” (2022).

One may read the % Inhibition as the drop in the measured response relative to a control, in per cent.

Screen size: about 150,000 compounds; about 540 (0.36%) showed an effect of 50% or more. Some of the results follow.

This experiment relates to Plasmodium falciparum. The experiment is described as follows: Primary screen in NF54 nanoGlo assay, in single point, at 2uM, 72h; a lower Z score goes with more inhibition. Conditions: timepoint 72 hour. The experiment is classed as functional, Erythrocyte.
Consider `CC[C@@H](C)[C@@H]1NC(=O)N(C2CCS(=O)(=O)C2)C1=O` (stereo partly specified), for which the “% Inhibition” value is -13% and the Z score turned out to be 1.58.
As for `CO[C@@H](Cc1ccc(F)cc1)CS(=O)(=O)N1CCC(c2ncc[nH]2)CC1`, the “% Inhibition” value is -4% and the Z score is 0.89.
The like results for `COCCn1cncc1CN1C(=O)CCCC1=O` were, in that order, -7% and 0.8.
The matching figures for `CCN(CC)CC(=O)N1CCN(c2cccnc2C#N)CC1`: -4% and 0.44.
The like results for `O=C(Nc1cnc2ccccc2c1)c1ccccc1C(=O)c1ccc(F)cc1` were, in that order, 93% and -10.24.
`O=C(Cc1cnc(-c2ccc(F)cc2)s1)NC[C@@H]1CCCN2CCCC[C@H]12`: the “% Inhibition” value is listed as -8% and the Z score came to 1.26.
Consider `O=C1CC2(CCN(S(=O)(=O)c3ccccc3)CC2)CN1Cc1ccccc1`, for which the “% Inhibition” value is given as -1% and the Z score was 0.24.
The like results for `CC[C@H](NCc1ncccc1C)c1cc(F)ccc1F` were, in that order, -13% and 1.33.
Turning to `CCCN(CC#Cc1ccccc1)C(=O)[C@H]1CCCN(C(N)=O)C1`, the “% Inhibition” value was -6% and the Z score is reported as 1.26.
As for `CCc1ncnc(NCCc2cncn2C)c1F`, the “% Inhibition” value turned out to be 0% and the Z score is reported as -0.01.
The matching figures for `CC[C@@H](C(=O)N1CCCN(c2ccc(NC(=O)c3cccc(OC)c3)cc2C(=O)NCc2ccc(F)cc2)CC1)c1ccccc1`: 10% and -1.76.
The matching figures for `NC(=O)c1cc2c(nc1N1CCN(Cc3cccc(F)c3)CC1)CCC2`: -13% and 2.59.
The like results for `Cc1ccc2oc(-c3ccc(NC(=O)CCc4cn[nH]c4)c(C)c3)nc2c1` were, in that order, -3% and 0.36.
For `Cc1nc(C(F)(F)F)c(Cn2cc(F)ccc2=O)s1`, the “% Inhibition” value is -7% and the Z score is 1.01.
The matching figures for `Cc1cnc(N[C@@H](C)c2ccc(Cl)cn2)nc1C`: -4% and 0.53.
The matching figures for `CCn1c(C)[n+](CCOCC[n+]2c(C)n(CC)c3cc(Cl)c(Cl)cc32)c2cc(Cl)c(Cl)cc21`: 7% and -0.66.
In the case of `Cc1ccsc1CN(Cc1ccccn1)C(=O)CN1CCCCCC1=O`, the “% Inhibition” value was -12% and the Z score was found to be 1.15.
For the compound `Cc1nnc2c(N3CCN(C(=O)C4CC=CC4)CC3)nccn12`, the “% Inhibition” value is on record as -9% and the Z score was 1.18.
The like results for `CC(C)Cn1c(CC2(CC(=O)NC3CCOCC3)CCCC2)nc2cccnc21` were, in that order, -12% and 1.81.
In the case of `CCOc1cccc(CNC(=O)[C@H]2CCN(c3cnn(C)c(=O)c3)C2)c1`, the “% Inhibition” value is on record as -14% and the Z score is listed as 1.88.
As for `Cc1c(C(=O)Nc2nccn2Cc2ccccc2Cl)nnn1[C@H]1CCNC1`, the “% Inhibition” value is -8% and the Z score was found to be 1.09.
For the compound `CO[C@H]1C[C@H]2CC[C@@H](C1)N2C(=O)c1cccc(OC(F)F)c1`, the “% Inhibition” value is reported as -3% and the Z score worked out at 0.37.
The like results for `O=C(NCCN1CCCOC1=O)[C@@H]1CCCN1Cc1ccccc1` were, in that order, -4% and 0.79.
The matching figures for `O=C(c1cc(Br)ccc1Cl)N(C(=O)c1cc(Br)ccc1Cl)c1cc(C(F)(F)F)ccc1Cl`: -3% and 0.48.
The like results for `CC(C)C(=O)N[C@@H](C)C(=O)N1CCCC1` were, in that order, -5% and 0.65.
Turning to `COCCN(CCOC)CC[C@@H]1CC[C@H](O)[C@@H](C(=O)Nc2ccccc2)O1`, the “% Inhibition” value is recorded as 16% and the Z score is on record as -1.85.
In the case of `CCC1CN(C(=O)C(C)C)CCC1NCc1ncc[nH]1` (stereo unspecified), the “% Inhibition” value is given as -8% and the Z score was determined as 1.11.
The matching figures for `C[C@H](NC1CCN(c2ccccc2Cl)CC1)c1cnn(C)c1`: -7% and 0.81.
`Cc1cc(Cl)ccc1S(=O)(=O)NC[C@H]1CN(C)CC12CCCCC2`: the “% Inhibition” value is given as -2% and the Z score is listed as 0.39.
Regarding `O=C(CCc1cn[nH]c1)N1CC(Oc2ccccc2F)C1`, the “% Inhibition” value was -4% and the Z score is recorded as 0.68.
The matching figures for `CCN1CCN(c2nc(-c3ccccc3)ncc2C(=O)Nc2ccc(C)cc2)CC1`: -14% and 1.28.
Take `Cc1c(Cl)cccc1-n1nc(C)c2c(C(F)(F)F)cc(OCCOc3ccccc3)nc21`: the “% Inhibition” value was -16% and the Z score is 1.65.
Take `Cn1c(=O)c2c(ncn2CC(=O)N(CCC#N)Cc2ccco2)n(C)c1=O`: the “% Inhibition” value is reported as -6% and the Z score worked out at 0.84.
The like results for `Cc1ccc(-c2noc3nc(C)cc(C(=O)Nc4ccncc4)c23)cc1` were, in that order, -6% and 0.94.
The like results for `COC(=O)c1sc(CC(=O)NCc2ccccc2)nc1C` were, in that order, -7% and 0.74.
The like results for `CCC(CC)NC(=O)Nc1ccn(Cc2cn3ccccc3n2)n1` were, in that order, -7% and 1.2.
For the compound `C=CCN1CC[C@H](CNC(=O)c2ccc(-c3cc(C)c(C#N)c(C)n3)cc2)C1`, the “% Inhibition” value is 0% and the Z score is given as -0.01.
As to `Cc1ccc(-c2noc(CCc3nnc(C4CCCC4)o3)n2)nc1C`, the “% Inhibition” value was determined as 3% and the Z score was -0.63.
The matching figures for `O=C(NCc1ccccc1)c1cn2cc(Cl)cnc2n1`: -9% and 1.58.
The matching figures for `O=C(c1ccc(=O)[nH]n1)N1CCC(Cc2ccccc2)CC1`: -3% and 0.4.
Take `CN(Cc1ccccc1O)C(=O)c1cccc2c3c([nH]c12)CCCC3`: the “% Inhibition” value is -10% and the Z score amounted to 1.57.
The matching figures for `CCCc1cc(N2C[C@H]3C[C@H](O)[C@H](O)C[C@H]3C2)nc(C)n1`: -4% and 0.48.
The matching figures for `O=C(c1cccc2ccccc12)[C@H]1CCCN(Cc2cccn2-c2nccs2)C1`: -6% and 0.5.
The matching figures for `CN(C)C(=O)C1(C)CCN(C(=O)c2cccn3cnnc23)CC1`: -6% and 1.02.
As for `Cc1nc[nH]c1-c1c(-c2ccccc2)ncn1Cc1cc(CC(C)C)no1`, the “% Inhibition” value was found to be 12% and the Z score is given as -1.6.
The matching figures for `C=CCn1ncc2c(=O)[nH]c(NCC3(N(C)C)CCCC3)nc21`: 22% and -2.85.
The like results for `OC(c1ccccc1)(c1ccccc1)[C@@H]1CCCN1Cc1ccccc1` were, in that order, 8% and -1.62.
For `Cn1cc([C@@H](NC(=O)c2cccc(-c3ncc[nH]3)c2)C2CC(O)C2)cn1` (stereo partly specified), the “% Inhibition” value was -4% and the Z score worked out at 0.79.
For `Cc1cc(OC(=O)c2ccccc2)c(C(C)C)cc1NC1=NS(=O)(=O)c2ccccc21`, the “% Inhibition” value was -8% and the Z score was found to be 1.07.
For the compound `O=C(Nc1cc(S(=O)(=O)Nc2ccc(Cl)cc2)ccc1N1CCCC1)c1ccc(F)cc1F`, the “% Inhibition” value is -9% and the Z score turned out to be 1.18.
With `O=C(c1cn2cc(Cl)ccc2n1)N1CCCN([C@H]2COC[C@@H]2O)CC1`, the “% Inhibition” value was -2% and the Z score was found to be 0.15.
The matching figures for `CNC(=O)CN1CCC(NC(=O)N2CCN(c3ccccc3F)C[C@@H]2C)CC1`: 1% and -0.11.
The matching figures for `Cc1nn(C)c2nc(N[C@H](c3nccn3C)C3CC3)sc12`: -6% and 1.26.
The like results for `Nc1nc(N)nc(Cn2cc(C(F)(F)F)ccc2=O)n1` were, in that order, 9% and -1.22.
`CC(C)(C)c1cnc(Cn2nc(C(F)(F)F)ccc2=O)o1`: the “% Inhibition” value is recorded as -14% and the Z score was determined as 1.25.
The matching figures for `Cc1ccc(O)c(NC(=O)[C@H](C)OCC(F)(F)F)c1`: -7% and 0.85.
The like results for `COc1cc(C(=O)N[C@@H]2COCC[C@@H]2Oc2ccccc2)ccn1` were, in that order, -5% and 0.96.
The matching figures for `CCOc1ccc(CCN2C(=O)CC[C@@]2(C)C(=O)NC2CCCCCC2)cc1OCC`: -8% and 1.14.
Turning to `COCCN(C)C[C@@H]1CN(C(=O)Cc2c(C)[nH]c3c(C)ccc(C)c23)C[C@@H]1CO`, the “% Inhibition” value stood at 3% and the Z score was -0.43.
The like results for `COc1ccc(C2C(C)C3(O)CC(C#N)(C(=O)N3)C2(C#N)C#N)cc1` (stereo unspecified) were, in that order, -8% and 0.97.
The like results for `O=C(C1CCC(C(F)(F)F)C1)N1CCC2(CCC2)C1` (stereo unspecified) were, in that order, -8% and 1.52.
Regarding `Cn1nccc1C(=O)N[C@@H]1C[C@H]1c1ccc(Cl)cc1Cl`, the “% Inhibition” value is given as 3% and the Z score was -0.44.
The like results for `O=C(Cn1cccn1)NC[C@H](Cc1ccc2ccccc2c1)C(=O)O` were, in that order, -2% and 0.31.
The like results for `CCNC(=O)N1CCC(c2nc(C)ccc2C(=O)N(C)C2CCCCC2)CC1` were, in that order, -9% and 1.16.
The like results for `CC(C)c1ccccc1OC[C@@H](O)CN1CCOC2(CCC2)C1` were, in that order, 1% and -0.07.
Take `CCc1ccc([C@@H]2CN(C(=O)c3c[nH]c(=O)cc3OC)CCO2)cc1`: the “% Inhibition” value was -15% and the Z score is 1.71.
The like results for `NC(=NC[C@H]1CCc2ccccc21)N1CCOCC1` were, in that order, -13% and 1.87.
The like results for `CCC1(CC)CCCN(C(=O)Nc2ccn(C(C)C)n2)CC1` were, in that order, -10% and 0.98.
The like results for `CC[C@H]1CCCN(C(=O)CC2(CS(C)(=O)=O)CC2)CC1` were, in that order, -13% and 1.33.
For `O=S(=O)(Oc1ccc2ccccc2c1)c1cccc2cccnc12`, the “% Inhibition” value was -3% and the Z score is given as 0.39.
The matching figures for `Cc1cc2c(C)c(C(=O)N3CCCCCC3)oc2c(S(=O)(=O)NCCCN2CCOCC2)c1C`: -15% and 1.78.
For the compound `CC[C@H]1CN(C(=O)CCc2cccn2C)CCO1`, the “% Inhibition” value is reported as -9% and the Z score worked out at 1.49.
Take `O=C(c1ccco1)N1CCN(C(c2ccccc2)c2ccccc2)CC1`: the “% Inhibition” value was determined as 0% and the Z score is 0.07.
The matching figures for `CCOc1ccc(N2Cc3cccc(OCC)c3OCC2=O)cc1`: -8% and 1.07.
The matching figures for `CCCn1nnnc1Cn1ncn(C)c1=O`: -3% and 0.52.
The matching figures for `Cc1ccc(C)c(NS(=O)(=O)c2cc(-c3ccc(=O)[nH]n3)ccc2C)c1`: -23% and 2.07.
Take `CCc1nnsc1C(=O)N1CCC2(CC1)NC(=O)NC2=O`: the “% Inhibition” value is -10% and the Z score worked out at 1.3.
The matching figures for `Cn1ccnc1[C@@H](O)c1cc2n(n1)CCN(c1cccc(C#N)n1)C2`: -7% and 1.02.
The matching figures for `CC(C)CN1CCN(S(=O)(=O)N2CCN(C)CC2)CC1`: -13% and 2.35.
The like results for `CCOC(=O)N1CCC(n2cnc3cccnc3c2=O)CC1` were, in that order, 4% and -0.57.
Regarding `CCOc1ccc(N(C)CCN2CCCC2=O)nn1`, the “% Inhibition” value worked out at 4% and the Z score is -0.49.
The like results for `CC(C)=C1C2CCC1C(C(=O)NCCc1ccccc1)C2C(=O)O` (stereo unspecified) were, in that order, -4% and 0.5.
Regarding `NC(=O)c1ccn(-c2cccc(NS(=O)(=O)c3ccc(C(=O)NCC(F)(F)F)cc3)c2)n1`, the “% Inhibition” value was 8% and the Z score is -1.5.
